In PubChem BioAssay AID686970 (National Center for Advancing Translational Sciences (NCATS), 2013):
Out of some 360,000 compounds screened, about 6,000 (1.7%) were called active. The shares of active, inactive and inconclusive entries below differ from those in the screen. Calls come from the whole dose curve; as a rule, active = well fitted cell-killing curve with a large enough effect; inconclusive = small, poorly fitted or top-dose-only effect, or effect the other way; inactive = flat fitted curve, though single readings scatter. No potency is given beside an inconclusive call; the fits are too rough.

Test: qHTS for induction of synthetic lethality in tumor cells producing 2HG: qHTS for the HT-1080-NT fibrosarcoma cell line; note: nearly all actives have a fitted effect of over 55% in size
Conditions: HT-1080-NT fibrosarcoma viability, CellTiter-Glo ATP luminescence, 48 h; activity, negative = less viability: at 46.1 µM (top of the series) unless noted
Description: Unbiased genomic sequencing for 22 glioma genomes found recurrent mutation of IDH1 on chromosome 2q33, a gene encoding the cytosolic isoform of IDH1 associated with the tricarboxylic acid cycle (TCA) that catalyzes the oxidative decarboxylation of isocitrate, yielding alpha-ketoglutarate and CO2 via NADP+ to NADPH conversion. Subsequent studies confirmed the recurrent IDH mutations in up to 70% of secondary gliomas and in 10% of AML cases. In addition, the somatic mutation of cancer-associated IDH1 is a point mutation resulting in various amino-acid substituents at Arginine132 (IDH1 R132), a key residue found in the enzyme's active site that when mutated, results in the loss-of-function in metabolizing isocitrate but confers a gain-of-function to produce the oncometabolite 2-hydroxyglutarate (2HG). This in effect defines IDH1 as an oncogene and provides an extraordinary opportunity to discover chemical probes against mutant IDH1 that may translate into much needed new therapies for glioma and AML patients.
This assay aims to perform a synthetic lethal screen for chemical probes specific for 2HG-producing tumor cells using matched paired cell lines (1) HT-1080-NT fibrosarcoma cell line that overproduces 2HG and (2) HT-1080-IDH1KD cell line which has IDH1 expression knocked-down. Desirable compounds are toxic to the NT fibrosarcoma cells but not to the IDH1KD cell line. The data in this AID corresponds to the results of the qHTS against the HT-1080-NT fibrosarcoma cell line.
[1] Dang L, Jin S, Su SM. IDH mutations in glioma and acute myeloid leukemia. Trends of Mol Med. 2010; 16(9): 387-97.
[2] Dang L et al. Cancer-associated IDH1 mutations produce 2-hydroxyglutarate. Nature. 2010; 465(7300):966.
NIH Molecular Libraries Probe Production Centers Network [MLPCN]
NIH Chemical Genomics Center [NCGC]
Assay Submitter (PI): Lenny Dang Ph.D., Agios Pharmaceuticals
Suspensions of trypsinized HT-1080-NT cells were dispensed into white, tissue culture-treated, solid 1536-well plates at 5uL/well (750 cells/well final concentration) in RPMI medium supplemented with 5% FBS. Plates were incubated at 37 degrees C for 2 hours, after which 23 nL of compounds or DMSO were delivered to each well using a pin tool. Plates were then incubated at 37 degrees C for an additional 48 hours. CellTiter-Glo viability reagent (Promega) was dispensed into wells (2.5uL/well) and incubated at room temperature for 10 minutes. The plates were measured on a PerkinElmer ViewLux plate reader for luminescent signal (clear filter, 1 sec exp). DMSO-treated control wells and media-only (no cells) control wells were used to normalize %Activity of identified toxic compounds; DMSO-treated wells corresponded to 0%Activity (100% viability), while media-only controls were used to normalize 100%Activity (0% viability).
Concentration-response curves were fitted to the signals arising from the resulting luminescence. The concentration-effect curves were then classified based on curve quality (r2), response magnitude and degree of measured activity, and compounds were subsequently categorized based on their curve class.
Potency is the fitted concentration of half-maximal effect; tags give direction and shape of the fitted curve.

| Compound | Potency | activity, negative = less viability |
| --- | --- | --- |
| CCCC(CCC)C(=O)Nc1ccc2c(c1)N(C(=O)CCN1CCN(C)CC1)c1ccccc1CC2 | inconclusive [cytotoxic, single point] | – |
| CC(C)C(C(=O)Nc1nccs1)c1ccc(Cl)cc1 (centres undefined) | inconclusive [cytotoxic, partial curve] | – |
| CC1(C)SC(=S)N(NC(=O)Nc2cccc3ccccc23)C1N(O)C(=O)Nc1ccccc1 (centres undefined) | inconclusive [cytotoxic, single point] | – |
| C/C(=N\NC(=O)c1cccc(S(=O)(=O)Nc2cccc(Cl)c2)c1)c1cccs1 | – | inconclusive: -31.2% [cytotoxic] |
| COc1ccc2[nH]c(C(=O)N/N=C/c3ccc(O)cc3O)cc2c1 | inconclusive [cytotoxic, full curve] | – |
| CC(C)Cc1csc(NC(=O)c2ccc(F)cc2)c1C(=O)O | inconclusive [cytotoxic, single point] | – |
| CCOc1ccc(Br)cc1C1=NN(C(C)=O)C(c2ccc([N+](=O)[O-])s2)O1 (centres undefined) | active: 23.1 µM | – |
| c1ccc2c3c([nH]c2c1)-c1[nH]ncc1CC3 | inconclusive [cytotoxic, single point] | – |
| CC1(C(=O)Nc2ccc(Cl)cc2)Cc2c(-c3cccc(C(F)(F)F)c3)ccnc2O1 (centres undefined) | inconclusive [cytotoxic, single point] | – |
| COc1ccc(CCN2C(=O)CSC2=Nc2ccc(C)cc2C)cc1OC | – | inactive: -17.2% |
| O=S(=O)(c1ccc2ccccc2c1)N(CC1CO1)c1ccccc1 (centres undefined) | inconclusive [cytotoxic, single point] | – |
| COc1cc2c(-c3ccccc3)c(C)oc2cc1/C=N/NC(N)=S | – | inactive: -14.5% |
| C[C@@H](c1ccccc1)N1C[C@H](COCc2ccccc2)Oc2cc(N3CC[C@H](O)C3)ccc2S1(=O)=O | inconclusive [cytotoxic, single point] | – |
| CN(C)CC/C=C1\c2ccc(F)cc2Sc2cc(F)c(Cl)cc21 | inconclusive [cytotoxic, single point] | – |
| C=CCc1c(C)nc(-c2ccccc2)nc1N/N=C/c1ccncc1 | inconclusive [cytotoxic, single point] | – |
| COc1ccc(-c2csc(NC(=O)C3CCN(c4ncnc5sc(C)c(C)c45)CC3)n2)cc1OC | active: 5.8 µM | – |
| OCCNc1nc(Nc2ccc(Cl)c(Cl)c2)nc2ccccc12 | inconclusive [cytotoxic, single point] | – |
| Cc1ccc(NC(=O)CNC(C)c2ccccc2)cc1 (centres undefined) | – | inactive: 4.07% |
| CC1(Cc2ccccc2C#N)C(=O)Nc2cc(-c3ccccc3Cl)ccc21 (centres undefined) | inconclusive [cytotoxic, single point] | – |
| O=C(Cn1cc(COc2cc(F)cc(F)c2)nn1)c1ccc(O)cc1 | inconclusive [cytotoxic, single point] | – |
| S=c1[nH]nc(-c2cc(-c3ccccc3)n[nH]2)n1/N=C/c1c2ccccc2cc2ccccc12 | inconclusive [cytotoxic, single point] | – |
| CC(=O)Nc1ccc(C(=O)N/N=C/c2cc(Br)cc(Br)c2O)cc1 | inconclusive [cytotoxic, partial curve, poor fit] | – |
| COc1cc(NS(C)(=O)=O)ccc1Nc1c2ccccc2nc2ccccc12 | active: 11.6 µM | – |

| Compound | Potency | activity, negative = less viability |
| --- | --- | --- |
| CS(=O)(=O)Nc1ccc(C2=NN(C(=O)C3CCCCC3)C(c3cccs3)C2)cc1 (centres undefined) | – | inactive: -14.3% |
| CC(CN1CCN(C)CC1)OC(=O)c1ccc(F)cc1 (centres undefined) | – | inactive: 14.2% |
| CCc1cccc2c(C(=O)COC(=O)[C@@H]3CC(O)CN3S(=O)(=O)c3ccccc3[N+](=O)[O-])c[nH]c12 (some centres undefined) | inconclusive [cytotoxic, single point] | – |
| COc1ccc(-c2ccc3c(c2)C2CC3CCN2C(=O)OCc2ccccc2)cc1 (centres undefined) | – | inactive: -11% |
| CC(C)NC(=O)c1ccc2nc([C@@H]3O[C@H](CO)[C@H](O)[C@H](O)[C@H]3O)[nH]c2c1 | inconclusive [rising, single point] | – |
| Cc1cc(C(=O)Nn2c(-c3ccc(Br)cc3)nc3ccccc3c2=O)ccc1[N+](=O)[O-] | active: 32.6 µM | – |
| Cc1cc(C)c(OCCCCN2CCC(C)CC2)c(Br)c1 | inconclusive [cytotoxic, single point] | – |
| O=C(Nc1nnc(SCc2ccc(F)cc2)s1)c1ccc2c(c1)C(=O)N(c1ccccc1Cl)C2=O | – | inactive: -0.0638% |
| Cc1ccccc1CN(C)CC(=O)NC(C)CCc1ccccc1 (centres undefined) | – | inactive: 1.64% |
| CCN(CC(=O)Nc1cc(Cl)ccc1C)C(=O)COc1cccc2c1OC(C)(C)C2 | – | inactive: -4.19% |
| CC(c1ccco1)N(C(=O)c1ccc(F)cc1)c1ccccn1 (centres undefined) | inconclusive [rising, full curve, poor fit] | – |
| COc1ccc(N(C(=O)c2snc(C(N)=O)c2N)C(C(=O)NCc2ccccc2)c2ccc(F)cc2)c(OC)c1 (centres undefined) | inconclusive [cytotoxic, partial curve] | – |
| Cc1ccc2oc3ccccc3c(=O)c2c1 | – | inactive: 23.9% |
| COc1ccc(-c2ccc(CN3C(CC(C)C)C(=O)N(Cc4cn(Cc5ccco5)nn4)CCS3(=O)=O)cc2)cc1OC (centres undefined) | – | inactive: -3.8% |
| N#CC(C#N)=C1C=CC=CN1/C(=C\c1ccco1)C(=O)c1ccc(-c2ccccc2)cc1 | inconclusive [cytotoxic, partial curve, poor fit] | – |
| O=C(O)c1ccc(S(=O)(=O)/N=C2\C=C(Nc3ccccc3F)C(=O)c3ccccc32)cc1 | inconclusive [cytotoxic, partial curve, poor fit] | – |
| Cc1ccc(-n2[nH]c(C)c(C=Nc3ccc4[nH]c(=O)[nH]c4c3)c2=O)cc1C | active: 23.1 µM | – |
| Cc1ccc(NC(=S)NCc2ccco2)c(C)c1 | – | inactive: -0.854% |
| COCCNc1nc(NCCOc2ccccc2Cl)c2sccc2n1 | inconclusive [cytotoxic, partial curve] | – |
| COc1ccc(C(=O)N(Cc2ccccc2)Cc2cc3cc4c(cc3[nH]c2=O)OCCO4)cc1 | – | inconclusive: -11.3% [cytotoxic] |
| CN(C(=O)CSc1nc(C2CC2)nc2ccccc12)c1nc(-c2ccccc2)cs1 | inconclusive [cytotoxic, single point] | – |
| O=C(CSc1nc2ccccc2c(=O)n1Cc1ccccc1)Nc1ccc(Br)cc1C(=O)O | – | inactive: -16.1% |
| CCn1c(SCC(=O)Nc2ccc(OC)cc2)nc2c(c1=O)SCC2 | – | inactive: -2.92% |

| Compound | Potency | activity, negative = less viability |
| --- | --- | --- |
| COc1cc(C(=O)Nc2ccc3c(c2)OCO3)ccc1OCc1c(C)noc1C | inconclusive [cytotoxic, single point] | – |
| Cc1ccccc1NC1=NCC(c2ccc([N+](=O)[O-])cc2)S1 (centres undefined) | inconclusive [cytotoxic, single point] | – |
| Cc1ccc(C(=O)Nc2ccc3c(c2)OCO3)cc1NC(=O)c1ccco1 | – | inactive: -20.7% |
| CC(=O)Nc1ccc(-c2ccnc3c2CC(C(=O)NCC2CC2)O3)cc1 (centres undefined) | inconclusive [cytotoxic, single point] | – |
| CCN(CC)c1ccc(N=Cc2c(C)[nH]c3ccccc23)cc1 | inconclusive [cytotoxic, partial curve] | – |
| NC(=O)NN=C1CCC(OCc2ccccc2)CC1CC(=O)O (centres undefined) | – | inactive: 15.2% |
| O=[N+]([O-])c1ccccc1S(=O)(=O)Nc1cccc(-c2ccc3nncn3n2)c1 | – | inactive: 0.635% |
| CCOC(=O)CSC1=C(C#N)C(c2ccccc2OCC)C(C#N)C(=O)N1 (centres undefined) | inconclusive [cytotoxic, single point] | – |
| CCOC(=O)c1sc(NC(=O)c2sccc2C)cc1C | inconclusive [cytotoxic, single point] | – |
| CC(Sc1nc(-c2ccc(F)cc2)cs1)C(=O)N1c2ccccc2CC1C (centres undefined) | inconclusive [cytotoxic, single point] | – |
| C#CCOCCOCCOCCNc1nc(N2CCN(C(=O)CCCCCCCCCCNC(=O)[C@@H](CCSC)n3cc(CCO)nn3)CC2)nc(N2CCN(C(=O)CCCCCCCCCCNC(=O)[C@H]([C@@H](C)CC)n3cc(CCCCCN)nn3)CC2)n1 | inconclusive [cytotoxic, single point] | – |
| COC(=O)[C@]1(Sc2ccc(OC)cc2)CC(=O)N[C@@H]1c1ccccc1 | – | inactive: 7.41% |
| COc1ccccc1/C=C/C(=O)OCC(=O)NC1CC1 | – | inactive: 8.83% |
| CCNc1ccc(C(=O)NN=C2CCCC2)cc1[N+](=O)[O-] | inconclusive [cytotoxic, single point] | – |
| COc1cccc(/C=N/NC(=O)CSc2ccccc2C)c1O | inconclusive [cytotoxic, partial curve] | – |
| O=C(Nc1cc(C(F)(F)F)ccc1N1CCOCC1)c1cccc(S(=O)(=O)N2CCOCC2)c1 | – | inactive: 8.17% |
| CCCC(C)NC(=O)Cc1ccc(Br)cc1 (centres undefined) | – | inactive: 9.77% |
| COc1ccccc1-c1coc2c(CN3CCOCC3)c(O)ccc2c1=O | – | inactive: 13.8% |
| COc1cccc(/C=N/NC(=O)CNC(=O)CCc2ccccc2)c1O | inconclusive [cytotoxic, partial curve] | – |
| Cc1ccc(C2(c3noc(CN4CCC(c5ccncc5)CC4)n3)CCCC2)cc1 | inconclusive [cytotoxic, partial curve] | – |
| CC(C)N1C(=O)/C(=C\c2nc3ccccc3c(=O)[nH]2)c2ccccc21 | inconclusive [cytotoxic, single point] | – |
| COC(=O)c1sc(NC(=O)c2c(C)noc2C)nc1C | – | inactive: -0.484% |
| O=CNc1cc(-c2ccc(C(=O)NC3CC3)cc2)cn2c(-c3ccc(F)cc3)cnc12 | inconclusive [cytotoxic, partial curve] | – |
